Hit rate of the full screen: of about 48,000 compounds, about 550 (1.1%) were called active. Roughly 4% stayed inconclusive and do not appear here. Rule as the data show it: active = potency below about 15 µM; inconclusive = mostly about 16 µM to 33 µM; inactive = weaker than that. The list shows a part of the results.
target: Lysosomal acid glucosylceramidase (Homo sapiens) (UniProt P04062); experiment: Glucocerebrosidase; settings: purified enzyme, resorufin glucoside fluorescence (screen aimed at inhibitors), 20 min;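 also: the screen sought inhibitors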
Summary of the method: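 Wild-type enzyme at 0.2 nM final in 50mM citric acid/KH2PO4, 10mM sodium taurocholate, 0.01% tween-20, pH 5.9, with resorufin beta-D-glucopyranoside at 30 uM final. Compounds titrated, 20 min at RT, red fluorescence read; AC50 from titration.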
Potency is read from the fitted curve at half-maximal effect.

Sequence of UniProt P04062 (P04062 whole entry, looked up): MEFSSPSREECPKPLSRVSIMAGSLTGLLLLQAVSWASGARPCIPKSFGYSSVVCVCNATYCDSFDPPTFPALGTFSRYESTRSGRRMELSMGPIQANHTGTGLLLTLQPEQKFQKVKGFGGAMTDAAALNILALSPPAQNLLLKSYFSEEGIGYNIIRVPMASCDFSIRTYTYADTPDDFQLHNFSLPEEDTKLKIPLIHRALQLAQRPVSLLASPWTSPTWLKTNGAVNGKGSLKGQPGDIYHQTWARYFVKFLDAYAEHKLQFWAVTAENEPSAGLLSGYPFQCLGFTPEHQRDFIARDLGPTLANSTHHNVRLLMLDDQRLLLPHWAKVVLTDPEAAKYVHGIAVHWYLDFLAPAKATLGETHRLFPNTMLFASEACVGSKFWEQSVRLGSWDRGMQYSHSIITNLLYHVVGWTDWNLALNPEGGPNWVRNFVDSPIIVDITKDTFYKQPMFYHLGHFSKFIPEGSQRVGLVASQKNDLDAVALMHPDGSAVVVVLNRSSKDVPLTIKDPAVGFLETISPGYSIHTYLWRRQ

| SMILES | Potency |
| --- | --- |
| CSC1=NP(=S)(SC)N2CCCC2=C1C#N (stereo not drawn) | inactive: > 76.9 µM |
| C(#CCN1CCOCC1)COCc1ccccc1 | inactive: > 76.9 µM |
| CN1CCN(Cc2nc3ccccc3n2C)CC1 | inactive: > 76.9 µM |
| CN1CCN(c2ccc(C(N)=O)cc2N)CC1 | inactive: > 76.9 µM |
| COC(=O)CSC1=NP(=S)(SCC(=O)OC)N2CCCC2=C1C#N (stereo not drawn) | inactive: > 76.9 µM |
| COc1ccccc1CN1CCCCC1c1cccnc1 (stereo not drawn) | inactive: > 76.9 µM |
| c1ccc2c(CCNCc3ccc4c(c3)OCO4)c[nH]c2c1 | inactive: > 76.9 µM |
| NC12CN3CN(CN(C3)C1)C2 (tested in a mixture with another compound) | inactive: > 76.9 µM |
| O=C(c1cc2c(s1)CCCC2)N1CCC2(CC1)OCCO2 | inactive: > 76.9 µM |
| COC(=O)c1c(C)[nH]c(C(=O)C(Cc2ccccc2)N(C)C)c1C (stereo not drawn) | inactive: > 15.4 µM |
| Cc1ccc(-n2nc(C)c3c2NC(=O)CSC3c2ccc3c(c2)OCO3)cc1 (stereo not drawn) | inactive: > 76.9 µM |
| CN(C)CP(=O)(O)CN(C)C=O | inactive: > 76.9 µM |
| CON(C)C(=O)Nc1ccc(Cl)cc1 | inactive: > 76.9 µM |
| Cc1ccc(S(=O)(=O)Cc2ccc(C(=O)N3CCC4(CC3)OCCO4)o2)cc1 | inactive: > 76.9 µM |
| CCCCOC(=O)C1=C(N)OC2=C(C(=O)CCC2)[C@]12C(=O)N(C)c1ccccc12 | inactive: > 76.9 µM |
| CN1CCN(C(=O)COc2ccc(C(C)(C)C)cc2Br)CC1 | inactive: > 76.9 µM |
| Cc1cc(Cl)ccc1OC(C)C(=O)O (stereo not drawn) | inactive: > 76.9 µM |
| O=C(CSc1ccccc1)N1CCC2(CC1)OCCO2 | inactive: > 76.9 µM |
| CCSc1cc(C2C(C#N)=C(N)Oc3n[nH]c(C)c32)c(C)o1 (stereo not drawn) | inactive: > 76.9 µM |
| O=C1NC(=O)C(CCc2ccncc2)(C2CCCCC2)C(=O)N1 | inactive: > 76.9 µM |
| COC(=O)CC1=C(C(=O)OC)C2(C(=O)Nc3c(C)cccc32)C(C#N)=C(N)O1 (stereo not drawn) | inactive: > 76.9 µM |
| COC(=O)C1=C(N)Oc2c(c(=O)oc3ccccc23)[C@]12C(=O)N(C)c1ccccc12 | inactive: > 76.9 µM |
| CCn1c(C(=O)N2CCC(C(=O)N3CCC4(CC3)OCCO4)CC2)cc2sccc21 | inactive: > 76.9 µM |
| CC(=O)N(C1=NCCCS1)c1ccccc1F | inactive: > 76.9 µM |

| SMILES | Potency |
| --- | --- |
| C=CCn1c(O)c(C(C)=NCCN2CCOCC2)c(=O)[nH]c1=O | inactive: > 76.9 µM |
| OC1(c2cccnc2)CC2CCC(C1)N2Cc1nnnn1Cc1ccccc1 (stereo not drawn) | inactive: > 76.9 µM |
| CN(C(=O)c1ccco1)C1(c2ccccc2Cl)CCCCC1=O (stereo not drawn) | inactive: > 76.9 µM |
| Cc1ccccc1NC1=NCC(C)S1 (stereo not drawn) | inactive: > 76.9 µM |
| C[C@]12CCC(=O)C=C1CCC1C2CC[C@@]2(C)C1CC[C@@]2(O)CC#N (stereo partly drawn) | inactive: > 76.9 µM |
| CCN1CCN(C(=O)COc2cc(=O)n(CC)c3ccccc23)CC1 | inactive: > 76.9 µM |
| CCCS(=O)(=O)N1CCCC(C(=O)N2CCC3(CC2)OCCO3)C1 (stereo not drawn) | inactive: > 76.9 µM |
| Cc1ccc(O)c(CN2CCN(c3ccccc3)CC2)c1 | inactive: > 76.9 µM |
| CCCNC(=O)N1C2CCC1CC(O)(c1cccnc1)C2 (stereo not drawn) | inactive: > 76.9 µM |
| Cc1nc2ccc(Cl)cn2c1P(=S)(N1CCOCC1)N1CCOCC1 | inactive: > 76.9 µM |
| Cn1ccnc1P(=S)(c1nccn1C)c1nccn1C | inactive: > 76.9 µM |
| COc1cccc(N2C(=O)NC(=O)C3(Cc4cc(C)ccc4N(C)C3)C2=O)c1 (stereo not drawn) | inactive: > 76.9 µM |
| CCN1CCN(Cc2cc(Br)cc(OC)c2O)CC1 | inactive: > 76.9 µM |
| O=c1[nH]c(=O)n(Cc2ccccc2)c(O)c1C=Nc1ccc(CN2CCOCC2)cc1 | inactive: > 76.9 µM |
| Fc1ccccc1N1CCN(Cc2c(F)cccc2F)CC1 | inactive: > 76.9 µM |
| CCCNC(=O)c1c(N)n(CC2CCCO2)c2nc3ccccc3nc12 (stereo not drawn) | inactive |
| CC1=CC(C)C(COC(N)=O)(COC(N)=O)C(C)C1 (stereo not drawn) | inactive: > 76.9 µM |
| CC(=NCCCn1ccnc1)c1c(O)n(C)c(=O)n(C)c1=O | inactive: > 76.9 µM |
| Cc1cccc(-n2c(O)c(C=NCCCN3CCOCC3)c(=O)[nH]c2=O)c1C | inactive: > 76.9 µM |
| C=CCn1c(O)c(C(C)=NCc2cccnc2)c(=O)[nH]c1=O | inactive: > 76.9 µM |
| O=C1NCN(c2ccccc2)C12CCNCC2 | inactive: > 76.9 µM |
| COc1ccc(-n2c(O)c(C(C)=NCCN3CCNCC3)c(=O)[nH]c2=O)cc1 | inactive: > 76.9 µM |
| COc1cc(/C=N/n2cnnc2)ccc1OC(=O)N(C)C | inactive: > 76.9 µM |
| CCc1cccc2c(C#N)cn(CC(=O)N3CCOCC3)c12 | inactive: > 76.9 µM |

| SMILES | Potency |
| --- | --- |
| CCN(CC)C(=O)c1ccc(NC(=O)CSc2nnnn2-c2cc(OC)ccc2OC)cc1 | inactive: > 76.9 µM |
| CCn1c(C)c(C(=O)O)c2cc(OC)ccc21 | inactive: > 76.9 µM |
| O=C1NC(=O)C2(Cc3c(nc4ccccn4c3=O)N3CCCCCC32)C(=O)N1Cc1ccccc1 (stereo not drawn) | inactive: > 76.9 µM |
| CCCCC12CNCC(C)(CNC1)C2=O | inactive: > 76.9 µM |
| CC1OC(NCCc2ccccc2)C(O)C(O)C1O (stereo not drawn) | inactive: > 76.9 µM |
| CCN1c2nc3c(C)cccn3c(=O)c2CC2(C(=O)N(C)C(=O)N(C)C2=O)C1C (stereo not drawn) | inactive: > 76.9 µM |
| O=P(/C(=N/O)N1CCOCC1)(N1CCOCC1)N1CCOCC1 | inactive: > 76.9 µM |
| CN(C)C(=O)CSc1nnc([C@@H](N)Cc2ccccc2)o1 | inactive: > 76.9 µM |
| OC(COCc1ccc(Cl)cc1)CN1CC=C(c2ccccc2)CC1 (stereo not drawn) | inactive: > 76.9 µM |
| CCN1CCN(Cc2ccc(OC(F)(F)F)cc2)CC1 | inactive: > 76.9 µM |
| CCCCCCn1c(O)c(C=NC2CCCCC2N)c(=O)[nH]c1=O (stereo not drawn) | inactive: > 76.9 µM |
| O=C(CN1CCN(Cc2ccc(Cl)cc2)C1=O)N1CCC2(CC1)OCCO2 | inactive: > 76.9 µM |
| C=Cn1ccnc1P(=S)(c1nccn1C=C)C1CCCCC1 | inactive: > 76.9 µM |
| CCCNc1oc(-c2cccc3ccccc23)nc1C#N | inactive: > 76.9 µM |
| CC(=O)N1CN2CN(C(C)=O)CC(C(=O)c3ccc(Br)cc3)(C2)C1 | inactive: > 76.9 µM |
| COc1ccccc1N1CCN(C(CNC(=O)Oc2ccccc2)c2cccnc2)CC1 (stereo not drawn) | inactive: > 76.9 µM |
| Cc1ccc(N(C)C(=O)Oc2cccc3cccnc23)cc1 | inactive: > 76.9 µM |
| C=CCN1C(=O)C2(C(C(=O)OCC)=C(N)Oc3c2c(=O)oc2ccccc32)c2ccccc21 (stereo not drawn) | inactive: > 76.9 µM |
| Cc1nc2c(-c3ccccc3)c(C)nn2c(C)c1CCC(=O)N1CCC2(CC1)OCCO2 | inactive: > 76.9 µM |
| CCC(=Nc1ccc(OC)cc1OC)c1c(O)n(C2CCCCC2)c(=O)[nH]c1=O | inactive: > 76.9 µM |
| N=C(N)c1c(O)n(C2CCCCC2)c(=O)n(C2CCCCC2)c1=O | inactive: > 76.9 µM |
| O=c1c2ccccc2nc(-c2ccco2)n1-c1nccs1 | inactive: > 76.9 µM |
| N#Cc1ccccc1Cn1cc(C(=O)c2ccco2)c2ccccc21 | inactive: > 76.9 µM |
| CC(C)OC12Oc3ccccc3C=C1N1CCC2CC1 (stereo not drawn) | inactive: > 76.9 µM |

| SMILES | Potency |
| --- | --- |
| O=C(c1ccc2c(=O)n(Cc3ccc4c(c3)OCO4)c(=S)[nH]c2c1)N1CCC2(CC1)OCCO2 | inactive: > 76.9 µM |
| CC(Oc1ccc(-c2ccccc2)cc1)C(=O)O (stereo not drawn) | inactive: > 76.9 µM |
| Cc1ccc2c(c1)CC1(CN2C)C(=O)NC(=O)N(c2cc(C)ccc2C)C1=O (stereo not drawn) | inactive: > 76.9 µM |
| CCn1c(=O)cc(OCC(=O)N2CCN(Cc3ccc4c(c3)OCO4)CC2)c2ccccc21 | inactive: > 76.9 µM |
| O=c1[nH]c2c(c(=O)n1C1CCCCC1)CCC2 | inactive: > 76.9 µM |
| CN1C(=O)C(C2(C#N)CCCCC2)C(=O)N(C)C1=O | inactive: > 76.9 µM |
| CCN(CC)CCCN=Cc1c(O)n(CCc2ccc(F)cc2)c(=O)[nH]c1=O | inactive: > 76.9 µM |
| Cc1ccccc1C1=NCC(=O)N(CC(=O)NCc2ccco2)c2sc3c(c21)CCCC3 | inactive: > 76.9 µM |
| CC(C)(C)P(=O)(c1ccncc1)N1CCCC1 (stereo not drawn) | inactive: > 76.9 µM |
| O=c1[nH]c(=O)n(Cc2ccco2)c(O)c1C=NC1CC1 | inactive: > 76.9 µM |
| CC(N)C(=O)c1ccco1 (stereo not drawn) | inactive: > 76.9 µM |
| CCC(=NCCCN(C)C)c1c(O)n(-c2ccc(OC)cc2)c(=O)[nH]c1=O | inactive: > 76.9 µM |
| O=c1cc(C2CCNCC2)[nH][nH]1 | inactive: > 76.9 µM |
| CCC(=Nc1ccc2c(c1)CCC2)c1c(O)n(C)c(=O)n(C)c1=O | inactive: > 76.9 µM |
| Cc1ccccc1-n1c(O)c(C=NCCN2CCOCC2)c(=O)[nH]c1=O | inactive: > 76.9 µM |
| O=P1(Nc2ccc(F)cc2)COc2ccccc2OC1 | inactive: > 76.9 µM |
| Cc1cc(C)n2nc(C)[n+](C)c2n1 | inactive: > 76.9 µM |
| CCN(CC)CCCN=Cc1c(O)n(-c2cccc(C)c2C)c(=O)[nH]c1=O | inactive: > 76.9 µM |
| Cc1occc1C(=O)N1CCC2(CC1)OCCO2 | inactive: > 76.9 µM |
| O=c1cccc2n1CC1CC2CN(c2ncnc3c2cnn3-c2ccc(Cl)cc2)C1 (stereo not drawn) | inactive: > 76.9 µM |
| O=C1C2CCCN2C(c2cccs2)N1c1ccccn1 (stereo not drawn) | inactive: > 76.9 µM |

Source: PubChem BioAssay AID360 (National Center for Advancing Translational Sciences (NCATS), 2006)
